Publication PMC4336329 (PLoS ONE, 2015)
Out of some 310,000 compounds screened, about 14,000 (4.5%) showed an effect of 50% or more. Effects have a minus sign here. This is one part of the list.

molecular target: human ether-à-go-go-related gene (hERG) potassium channel (human, UniProt Q12809); experiment: primary screen, population patch clamp on CHO cells stably expressing hERG
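Further: peak tail current of the secondary pulse compared with the same well before compound.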

Sequence of human ether-à-go-go-related gene (hERG) potassium channel (Q12809 whole entry, looked up): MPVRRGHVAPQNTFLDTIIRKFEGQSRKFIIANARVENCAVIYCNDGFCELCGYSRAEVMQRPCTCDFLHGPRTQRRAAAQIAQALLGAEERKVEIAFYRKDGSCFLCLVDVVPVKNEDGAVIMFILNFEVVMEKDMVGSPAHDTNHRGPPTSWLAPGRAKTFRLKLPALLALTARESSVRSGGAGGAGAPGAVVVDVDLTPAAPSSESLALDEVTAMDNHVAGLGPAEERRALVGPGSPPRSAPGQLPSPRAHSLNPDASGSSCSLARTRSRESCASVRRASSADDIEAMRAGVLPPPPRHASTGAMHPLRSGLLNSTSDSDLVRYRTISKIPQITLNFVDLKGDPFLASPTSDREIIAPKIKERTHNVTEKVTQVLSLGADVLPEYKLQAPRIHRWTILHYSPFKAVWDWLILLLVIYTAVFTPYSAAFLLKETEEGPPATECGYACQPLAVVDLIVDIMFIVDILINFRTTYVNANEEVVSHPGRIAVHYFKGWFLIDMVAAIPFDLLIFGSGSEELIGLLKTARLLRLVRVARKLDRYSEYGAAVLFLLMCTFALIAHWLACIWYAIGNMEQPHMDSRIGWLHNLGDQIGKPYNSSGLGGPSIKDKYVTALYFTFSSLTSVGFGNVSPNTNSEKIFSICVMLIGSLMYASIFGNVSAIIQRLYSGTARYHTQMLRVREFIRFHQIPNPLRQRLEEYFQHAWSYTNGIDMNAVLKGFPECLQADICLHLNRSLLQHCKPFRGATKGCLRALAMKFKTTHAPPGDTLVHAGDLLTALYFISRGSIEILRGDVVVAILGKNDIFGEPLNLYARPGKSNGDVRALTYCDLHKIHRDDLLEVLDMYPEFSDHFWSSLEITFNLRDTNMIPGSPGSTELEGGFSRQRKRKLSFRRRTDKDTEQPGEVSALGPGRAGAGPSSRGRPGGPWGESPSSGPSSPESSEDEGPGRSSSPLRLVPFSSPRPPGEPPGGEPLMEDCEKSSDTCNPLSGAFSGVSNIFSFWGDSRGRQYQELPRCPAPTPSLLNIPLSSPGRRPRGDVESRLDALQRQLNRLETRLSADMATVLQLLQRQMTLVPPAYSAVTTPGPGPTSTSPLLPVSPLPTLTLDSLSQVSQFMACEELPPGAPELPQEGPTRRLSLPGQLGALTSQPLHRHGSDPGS

SMILES	hERG current change (%, negative = inhibition) at 10uM
CC(Sc1nnc(C2CC2)n1C1CC1)C(=O)Nc1ccccc1C#N (stereo not shown)	-10%
COCCN(C(=O)CCCC(=O)Nc1ccccn1)C(C(=O)NC1CCCC1)c1ccc(C)cc1 (stereo not shown)	-5.66%
CCN(CC)S(=O)(=O)c1ccc(N2Cc3ccccc3C2=N)cc1	-40.5%
CC1CCCC(N2CCN(C(=O)c3cccc(F)c3)CC2)C1.O=C(O)C(=O)O (stereo not shown)	-6.93%
COc1ccccc1/C=C(/C(=O)OCC(=O)Nc1ccc(N(C)C)cc1)c1ccccc1	-0.0196%
Cc1cc(NC(=O)c2cc(-c3ccccc3)on2)no1	11.4%
Cc1c(C(=O)N(C)C)sc2nc(-c3ccccn3)[nH]c(=O)c12	-2.71%
O=C1CCC(c2ccccc2)(c2ccccc2)CC1	6.52%
COC(=O)Cc1c(C)c2ccc(OCC(=O)N3CCCC3)c(C)c2oc1=O	-15.2%
NS(=O)(=O)c1ccc(CCNC(c2ccccc2)c2ccccc2)cc1	-24.8%
COc1cccc(Nc2nnc(SCC(=O)N(CC(C)C)CC(C)C)s2)c1	5.89%
O=C(Cc1ccc(-c2ccccc2)cc1)Nc1ncccc1O	3.3%
Cc1ccccc1NC(=O)c1cc(S(=O)(=O)N2CCOCC2)cn1C	-8.81%
CCN(CC)CCN(C(=O)c1cc2ccccc2cc1OC)c1nc2ccc(OC)cc2s1.Cl	-13.4%
CC(=NCCN1CCOCC1)c1c(O)n(Cc2ccccc2)c(=O)[nH]c1=O	-30.1%
COC(=O)C1CCN(CC(N)=O)CC1	-0.199%
COc1ccc(CCNC(=O)CCCn2c(=O)c3cccn3c3cccnc32)c(OC)c1OC	-19.5%
Cc1ccc(S(=O)(=O)NNC(=O)C2CCN(S(=O)(=O)c3ccc(C)cc3)CC2)cc1	-12.4%
O=C1CN(C(=S)Nc2ccc(OC(F)F)cc2)CCN1	7.1%
CCOc1cc(CNCc2cccs2)ccc1OCC(=O)NC(C)(C)C.Cl	-12.4%
O=C(CN1CCN(C(=O)CN2C(=O)NC3(CCCC3)C2=O)CC1)Nc1cccc(F)c1	-2.85%
CCN(CC)c1ccc(/C=N/N2CCN(c3ccccc3OC)CC2)cc1	14.4%

SMILES	hERG current change (%, negative = inhibition) at 10uM
CCc1ccc(C(=O)C(C)OC(=O)c2cccc(S(=O)(=O)N3CCOCC3)c2)cc1 (stereo not shown)	-12.5%
Cc1ccc(Cn2c(NCCCn3ccnc3)nc3c2c(=O)n(C)c(=O)n3C)cc1	-30.1%
Fc1cccc(NC(=S)N2CCN(c3ccccn3)CC2)c1	5.41%
COc1ccc(NC(=O)CSc2nc(=O)n(CCN3CCOCC3)c3c2CCC3)c(OC)c1	-28.4%
COc1ccc(C(=O)NNC(=O)c2ccncc2)cc1[N+](=O)[O-]	25.2%
COCC(C)n1c(SCc2ccc(C(=O)OC)o2)nc2ccccc2c1=O (stereo not shown)	-8.61%
O=C1CCCC(=O)C1C(c1ccc(Cl)cc1)C1C(=O)CCCC1=O	13.7%
CC(C)(C)C#CC(CCc1ccccc1)OS(N)(=O)=O (stereo not shown)	7.66%
Cc1ccc(C2=NC3(CCCCC3)N=C2SCC(=O)Nc2ccc3c(c2)OCCO3)cc1	11.6%
Cc1cc(NC(=O)c2ccc(S(=O)(=O)N3CCOCC3)cc2)nc2c1c(=O)oc1ccccc12	-16.9%
CCC(C)NC(=O)c1ccc(CS(=O)(=O)c2ccc(OC)cc2)o1 (stereo not shown)	-2.75%
COc1ccc(CC(=O)NCC(=O)N/N=C/c2c[nH]c3ccccc23)cc1	9.81%
CCOc1cccc(C(=O)NC(c2ccccc2)C(C)C)c1 (stereo not shown)	10.4%
O=C(Nc1cccc(-c2nc3ccccc3[nH]2)c1)c1ccccn1	-18.3%
O=C(NCCc1ccccc1)c1ccc2c(c1)S(=O)(=O)N=C1CCCCCN12	4.12%
O=C(NN=C1CCCCCC1)NC1CCCCC1	-9.86%
O=C(NCC1CCCO1)c1ccc(COc2ccc(Cl)cc2)cc1 (stereo not shown)	-11.9%
Cc1nnc2n1N=C(c1ccc3c(c1)NC(=O)CO3)CS2.Cl	-11.1%
Cc1cc(C)c(C)c(S(=O)(=O)Nc2cccc(-n3cnnn3)c2)c1C	23.3%
CCc1ccc(NC(=S)N(CCC(C)C)C2CCN(C(C)=O)CC2)cc1	-20.9%
COc1cc(OC)c(OC)cc1CNCCNC(=O)c1ccco1	18.2%
COc1ccc(COC(=O)c2ccc(S(=O)(=O)N3CCCCC3)cc2)cc1OC	11%

SMILES	hERG current change (%, negative = inhibition) at 10uM
C=CCNC(=O)c1oc2ccc(S(=O)(=O)N3CCCCC3)cc2c1C	-0.838%
CC(C)NC(=O)c1ccc(COc2ccc(C(C)(C)C)cc2)o1	11.7%
Cc1ccc(S(=O)(=O)Cn2cnnn2)cc1	7.14%
O=C(CCC1N=C2c3ccccc3N=C(SCC(=O)NCC3CCCO3)N2C1=O)NCc1ccc(F)cc1 (stereo not shown)	2.89%
C=CCn1c(SCC(=O)NCCc2ccccc2)nnc1C(C)NC(=O)c1cccs1 (stereo not shown)	-9.52%
O=C(N/N=C/c1ccc(O)cc1)/C(=C/c1ccc([N+](=O)[O-])cc1)NC(=O)c1ccccc1	8.54%
COc1ccc(-c2nnc3ccc(SCC(=O)Nc4nccs4)nn23)cc1OC	-3.17%
Cc1nnc2c(N(C)S(=O)(=O)c3ccccc3)nc3ccccc3n12	-0.049%
O=C(O)c1ccccc1C(=O)Nc1ccccc1[N+](=O)[O-]	6.88%
CCCc1[nH]nc2c1C1(C(=O)N(CC(N)=O)c3ccccc31)C(C(=O)OC)=C(N)O2 (stereo not shown)	7.26%
CCC(=O)N1CCc2cc(S(=O)(=O)CCC(=O)NCCc3ccc(OC)c(OC)c3)ccc21	-0.229%
COc1ccccc1NS(=O)(=O)c1cc(NC(=O)c2ccncc2)ccc1N1CCCC1	69.9%
Oc1[nH]c2ccccc2c1C=Nc1ccccc1	-9.66%
COC(=O)c1cc(C(=O)OCC(=O)c2ccc[nH]2)cc([N+](=O)[O-])c1	-11.5%
COc1ccc(O[C@H]2C=C[C@@H](c3ccccc3)O[C@@H]2CO/N=C(\C)CCN2CCc3nc(-c4ccccc4)c(-c4ccccc4)cc3C2)cc1	6.94%
COc1ccc(/C([O-])=C(/C(=S)Nc2ccc(C)c(C)c2)n2c[n+](C)c3ccccc32)cc1OC	48.3%
C/C(CCc1ccccc1)=N\NC(=O)CCc1ccccc1	-7%
CC1(C)Cc2c(c(-c3ccccc3)nc(N3CCCC3)c2C(N)=O)CO1	4.06%
CCOC(=O)/C(C#N)=C/c1ccc(N2CCN(Cc3ccccc3)CC2)cc1	-6.47%
O=C(CSc1nc(-c2ccccc2)c(-c2ccccc2)o1)NCCCO	-31%
COc1cccc(OC)c1OCCOCCN1CCN(C)CC1	20.8%
COc1ccc(N(CC(=O)NCc2ccccc2Cl)S(=O)(=O)c2c(C)n[nH]c2C)cc1	2.87%

SMILES	hERG current change (%, negative = inhibition) at 10uM
O=C(NCc1ccc2c(c1)OCO2)c1cc(Cl)ccc1Cl	11.9%
Cc1ccc2c(c1)c1c(n2CC(O)CN2CCOCC2)CCCC1.Cl (stereo not shown)	9.32%
CCc1ccccc1NC(=O)CSc1nc2[nH]c(=O)cc(O)c2s1	16.3%
CCCn1cc(S(=O)(=O)c2ccc(OC)cc2)c(=O)c2cc(OC)ccc21	-6.28%
O=C(NCc1ccccc1)c1ccc(/C=N/O)nc1	-6.57%
CC(C)C1CC(=O)NC(SCC(=O)Nc2ccc(Br)cc2)=C1C#N (stereo not shown)	-2.52%
O=C(C1CCCO1)N1CCN(Cc2c(O)ccc3ccccc23)CC1 (stereo not shown)	-6.15%
CCN1CCN(CCNC(=O)c2cn(C(C)c3ccccc3F)nn2)CC1 (stereo not shown)	9.37%
COc1ccc2cc(C=NS(=O)(=O)c3ccc(C)cc3)n(C)c2c1	9.83%
Cc1cccc(NC(=S)NNC(=O)COc2ccc(Cl)cc2Cl)c1	14.6%
COc1ccc(/C=N/NS(=O)(=O)c2ccccc2)cc1OS(=O)(=O)c1ccc(C)cc1	8.09%
NC(=O)C1CCN(C(=O)c2cc3c(s2)CCCC3)CC1	-8.49%
C=CCOc1ccc(C(=O)Nc2ccc3c(c2)n(C)c(=O)n3C)cc1	-8.74%
CC(=O)Nc1ccc(C(=O)NNC(=O)C2CC2)cc1	30.7%
CCCCN(C)CCNC(=O)c1cc2cc3ccc(OC)cc3nc2o1	-43%
Cc1cccc(NC(=O)c2ccc(S(=O)(=O)N3CCCCC3C)cc2)n1 (stereo not shown)	-5.94%
CC12CCC(=O)N1C(C(=O)N1CCN(c3ccc(C(F)(F)F)cc3[N+](=O)[O-])CC1)CS2 (stereo not shown)	-12.2%
CC1(C)OC(=O)C(C(c2ccccc2)C(C#N)C(N)=O)=C(O)O1.CCN(CC)CC (stereo not shown)	-5.82%
O=C(N/N=C/c1cccc(C(F)(F)F)c1)C1CCN(c2ncc(C(F)(F)F)cc2Cl)CC1	7.68%
